According to the CheMixHub viscosity set:

For `O=S(=O)(O)O`, which viscosity (303.15 K, 101 kPa) is on record?
The viscosity was 22.5 ± 0.59 mPa·s [study A] and 20.01 ± 0.54 mPa·s [study B] and 210 ± 6.6 mPa·s [study C].

With `ClCCCl` as the molecule, how does the viscosity (298.15 K, 101 kPa) read?
Its viscosity is 0.7812 ± 0.01 mPa·s [study A] and 0.773 ± 0.009 mPa·s [study B] and 0.771 ± 0.02 mPa·s [study C] and 0.7833 ± 0.02 mPa·s [study D] and 0.7808 ± 0.0092 mPa·s [study E].

What about the viscosity (303.15 K, 101 kPa) of the same molecule?
The viscosity was 0.7307 ± 0.0069 mPa·s [study A] and 0.7256 ± 0.019 mPa·s [study B] and 0.71 ± 0.071 mPa·s [study C] and 0.74 ± 0.019 mPa·s [study D] and 0.7295 ± 0.006 mPa·s [study E].

With `CC(=O)O` as the molecule, how does the viscosity (293.15 K, 101 kPa) read?
The viscosity was 1.263 ± 0.032 mPa·s [study A] and 1.296 ± 0.034 mPa·s [study B] and 1.287 ± 0.028 mPa·s [study C] and 1.103 ± 0.14 mPa·s [study D] and 1.281 ± 0.034 mPa·s [study E].

And the viscosity (298.15 K, 101 kPa)?
Its viscosity is 1.086 ± 0.029 mPa·s, 0.9605 ± 0.026 mPa·s, 1.098 ± 0.14 mPa·s, 1.146 ± 0.064 mPa·s, 1.28 ± 0.028 mPa·s, 1.241 ± 0.033 mPa·s, 1.155 ± 0.029 mPa·s, 1.18 ± 0.026 mPa·s, 1.174 ± 0.031 mPa·s [several studies].

What about the viscosity (298.15 K, 101.33 kPa) of the same molecule?
The viscosity was 1.15 ± 0.01 mPa·s [study A] and 1.174 ± 0.004 mPa·s [study B] and 1.139 ± 0.011 mPa·s [study C] and 1.34 ± 0.013 mPa·s [study D] and 1.06 ± 0.05 mPa·s [study E].

And the viscosity (303.15 K, 101 kPa)?
The viscosity was 0.884 ± 0.045 mPa·s [study A] and 1.1 ± 0.029 mPa·s [study B] and 1.085 ± 0.024 mPa·s [study C] and 1.055 ± 0.13 mPa·s [study D] and 1.021 ± 0.012 mPa·s [study E].

And the viscosity (308.15 K, 100 kPa)?
Its viscosity is 0.914 mPa·s [study A] and 0.976 ± 0.04 mPa·s [study B] and 0.98 ± 0.03 mPa·s [study C].

What about the viscosity (308.15 K, 101.33 kPa) of the same molecule?
Its viscosity is 1.012 ± 0.012 mPa·s [study A] and 0.966 ± 0.025 mPa·s [study B] and 0.9795 ± 0.011 mPa·s [study C] and 0.91 ± 0.05 mPa·s [study D] and 0.972 ± 0.024 mPa·s [study E].

And the viscosity (313.15 K, 100 kPa)?
Its viscosity is 0.863 mPa·s [study A] and 0.913 ± 0.037 mPa·s [study B].

What about the viscosity (313.15 K, 101 kPa) of the same molecule?
The viscosity was 0.931 ± 0.023 mPa·s [study A] and 0.9601 ± 0.025 mPa·s [study B] and 0.9283 ± 0.02 mPa·s [study C] and 0.8948 ± 0.024 mPa·s [study D] and 0.905 ± 0.009 mPa·s [study E] and 0.987 ± 0.016 mPa·s [study F] and 0.9369 ± 0.025 mPa·s [study G].

What about the viscosity (313.15 K, 101.33 kPa) of the same molecule?
Its viscosity is 0.9076 ± 0.0064 mPa·s [study A] and 1 ± 0.05 mPa·s [study B] and 0.86 ± 0.04 mPa·s [study C] and 0.9003 ± 0.045 mPa·s [study D] and 0.907 ± 0.023 mPa·s [study E].

And the viscosity (318.15 K, 100 kPa)?
The viscosity was 0.822 mPa·s [study A] and 0.847 ± 0.034 mPa·s [study B] and 0.85 ± 0.03 mPa·s [study C].

And the viscosity (318.15 K, 101.33 kPa)?
The viscosity was 0.853 ± 0.01 mPa·s [study A] and 0.834 ± 0.022 mPa·s [study B] and 0.8536 ± 0.01 mPa·s [study C] and 0.851 ± 0.022 mPa·s [study D].

What about the viscosity (323.15 K, 101 kPa) of the same molecule?
The viscosity was 0.823 ± 0.021 mPa·s [study A] and 0.823 ± 0.008 mPa·s [study B] and 0.8288 ± 0.022 mPa·s [study C] and 0.7628 ± 0.02 mPa·s [study D] and 0.8724 ± 0.023 mPa·s [study E] and 0.8228 ± 0.023 mPa·s [study F].

And the viscosity (323.15 K, 101.33 kPa)?
The viscosity was 0.7644 ± 0.0054 mPa·s [study A] and 0.818 ± 0.0068 mPa·s [study B] and 0.7967 ± 0.041 mPa·s [study C] and 0.798 ± 0.02 mPa·s [study D].

± gives the uncertainty stated by the source. A number of entries come with more than one value. They are shown here; other results are not. The source may hold further records. Values that stand side by side are repeats across runs, samples, wells, individuals or studies. What stands in brackets tells the records apart. Letters count within one entry.
